# In PubChem BioAssay AID1347073 (National Center for Advancing Translational Sciences (NCATS), 2019):
# Among all 45,000 compounds or so, about 200 (0.44%) were called active. Not shown: some 7% with an inconclusive outcome. The call rests on the fitted dose curve; in most records, active means well fitted activation curve with a large enough effect; inconclusive means small, poorly fitted or top-dose-only effect; inactive means no such curve, though single readings can be large or run the other way. This is one part of the list.
# Assay: qHTS of TDP-43 Inhibitors: NCGC Sytravon Library Screen; further: 0% is about no effect; nearly all actives have a fitted effect of over 55% in size
# Conditions: yeast TDP-43 toxicity rescue, BacTiter-Glo growth, 24 h; series mostly up to 46.1 µM; growth rescue (activation): at the top concentration
# Outline: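 TDP-43-expressing yeast, pregrown in raffinose, seeded at OD600 0.02 in galactose medium with compound for 24 hr at 30 deg C. Growth read by BacTiter-Glo luminescence, so rescue of toxicity appears as activation.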
row,Structure (SMILES),growth rescue (activation)
1,CSc1ccccc1NC(=O)c1ccc(CN2CCOCC2)cc1,inactive: -6.96%
2,CCOc1ccc(N2CC(C(=O)NCc3ccco3)CC2=O)cc1 (stereo not drawn),inactive: 4.37%
3,Cc1[nH]c(=O)[nH]c(=O)c1CSCC(=O)OCC(=O)Nc1ccccn1,inactive: 3.81%
4,Cc1cc2oc(=O)cc(CN(C)Cc3ccccc3)c2cc1C(C)C,inactive: -11.9%
5,O=C(Nc1ccccc1Cl)C1CCCN(S(=O)(=O)c2ccc(-n3cnnn3)cc2)C1 (stereo not drawn),inactive: 7.06%
6,Cc1cc(NC(=O)CSc2nc(-c3ccco3)cc(C(F)(F)F)n2)n(-c2ccccc2)n1,inactive: 25%
7,CCc1cccc(C)c1NC(=O)C1CN(S(=O)(=O)c2ccccc2)CCN1S(=O)(=O)c1ccccc1 (stereo not drawn),inactive: 3.56%
8,Cc1ccccc1S(=O)(=O)Nc1ncnc2ccccc12,inactive: 21.1%
9,COc1ccc(S(=O)(=O)N2CCC(C(=O)NC3CC3)CC2)cc1,inactive: 12%
10,COc1ccc(CCNc2ccc(N3C(=O)CC(C)C3=O)cc2[N+](=O)[O-])cc1OC (stereo not drawn),inactive: -22.4%
11,COc1ccc(/C=N/NC(=O)c2ccc(N3CCCC3=O)cc2)cc1,inactive: 7.25%
12,CC(C)(C)NC(=O)C(c1ccccn1)N(C(=O)C1CSC(=O)C1)c1cccc(F)c1 (stereo not drawn),inactive: 3.5%
13,O=C(N/N=C/c1cn(CC(=O)N2CCOCC2)c2ccccc12)c1cccnc1,inactive: -12.4%
14,CC1=C(C(=O)Nc2ccccc2)C(c2ccccn2)n2ncnc2N1 (stereo not drawn),inactive: 22.6%
15,CC(=O)Nc1ccc(OCC(O)CN2CCN(c3ccccc3Cl)CC2)cc1 (stereo not drawn),inactive: -1.42%
16,CCCCCCn1c(SCC(=O)c2c(N)n(C)c(=O)n(C)c2=O)nc2ccccc21,inactive: 9.42%
17,COc1ccc(OC)c(NC(=O)C2(C)CCN2C(C)C)c1 (stereo not drawn),inactive: -3.34%
18,Cc1ccc(-n2c(C)n[nH]c2=S)cc1C,inactive: 3.35%
19,CCC(C)(C)NC(=O)CN(C(=O)CCC(=O)Nc1cc(C)ccn1)c1ccc2c(c1)OCCO2,inactive: 14.6%
20,CCN(CC)S(=O)(=O)c1ccc(N2C(=O)Nc3ccccc3N2O)cc1,inactive: 5.29%
21,CCOC(=O)C1=C(CS(=O)(=O)c2ccccc2)NC(=O)NC1c1ccc(O)c(OC)c1 (stereo not drawn),inactive: 20.6%
22,CN(C)CCNc1ncnc2c1ncn2[C@H]1CN(CCc2ccccc2)C[C@@H](CO)O1,inactive: 5.57%
23,O=C(NNC(=O)C12CC3CC(CC(C3)C1)C2)c1cccc([N+](=O)[O-])c1,inactive: -2.04%
24,Cn1nnc2cc(C(=O)N3CCN(c4ccccn4)CC3)ccc21,inactive: -10.7%
25,O=C(O)c1c[nH]c2ccc(F)cc2c1=O,inactive: -5.47%
26,CC(c1nc2ccccc2n1Cc1ccccc1)N1CCCCC1 (stereo not drawn),inactive: -0.093%
27,Cc1nc(N2CCN(C(=O)c3ccco3)CC2)c2c3c(sc2n1)CC(C)CC3 (stereo not drawn),inactive: -57.3%

row,Structure (SMILES),growth rescue (activation)
1,CCN(CC)c1ccc(-n2c(O)c(C=C3N=c4ccccc4=N3)sc2=S)cc1,inactive: 6.32%
2,Cc1cc(-c2nnc(CCC(=O)N3CCN(Cc4cccc(F)c4)CC3)o2)c(C)o1,inactive: 10.1%
3,COc1cc(CC(=O)OCC(=O)NCC(C)C)cc(OC)c1OC,inactive: 4.51%
4,Cc1c(/C=N\NC(=O)C2COc3ccccc3O2)c2ccccc2n1C (stereo not drawn),inactive: 23.6%
5,O=C(O)c1ccc(CNC(=S)Nc2ccccc2)cc1,inactive: -22.1%
6,NC(=O)CC[C@H](NC(=O)c1ccc(F)cc1)C(=O)N1CCN(Cc2ccc3c(c2)OCO3)CC1,inactive: 1.62%
7,COc1c(/C=N/NC(=O)c2ccncc2)c(CCN(C)C(C)=O)cc2c1OCO2,inactive: 3.6%
8,CCCn1ccc(O)c(Cc2ccc(Cl)cc2)c1=O,inactive: 0.0391%
9,CCN(CC)S(=O)(=O)c1ccc(N2CCCC2)c(NS(=O)(=O)c2ccc(F)cc2)c1,inactive: -1.55%
10,O=C(Nc1ccc(N2CCOCC2)cc1)c1cccc2ccccc12,inactive: 7.12%
11,Cc1nc(N2CCN(C)CC2)c2cc(-c3ccccc3)sc2n1,inactive: 11.7%
12,O=C(Nc1ccc(N2CCOCC2)c([N+](=O)[O-])c1)c1ccco1,inactive: -5.01%
13,CCOC(=O)c1c(C)[nH]c(C(=O)N2CCCC(C(=O)c3ccccc3OC)C2)c1C (stereo not drawn),inactive: 32.6%
14,COc1ccccc1C1CC(c2cccs2)=NN1C(=O)CCC(=O)O (stereo not drawn),inactive: 2.85%
15,Cc1ccc(NS(=O)(=O)c2ccc(OCC(N)=O)cc2)cc1,inactive: 11.5%
16,CC1CC(C)CN(C(=O)CNC(=O)Cn2ccc3ccccc3c2=O)C1 (stereo not drawn),inactive: 1.28%
17,CCOC(=O)N1CCN(C(=O)CN2C(=O)c3ccccc3S2(=O)=O)CC1,inactive: -5.44%
18,O=C(NNC1CC(=O)N(c2ccc(Cl)cc2)C1=O)c1ccco1 (stereo not drawn),inactive: 18.8%
19,CC(C)n1nnnc1SCC(=O)Nc1cccc(F)c1,inactive: 6.53%
20,CCOc1ccc(CCNC(=O)C2=C(C)C(=O)OC23CCCCC3)cc1,inactive: 5.27%
21,O=C(NNC(=S)Nc1ccc(Br)cc1)c1cccnc1,inactive: 0.0712%
22,O=C(CN1C(=O)/C(=C\c2ccccc2F)SC1=S)Nc1nc2ccccc2s1,inactive: -1.68%
23,C=C(C)CNC(=O)CCc1nnc(Cc2cccc(C(F)(F)F)c2)o1,inactive: 8.46%
24,COC(=O)COc1ccc(S(=O)(=O)N2CCN(c3ccccc3)CC2)cc1,inactive: 9.29%
25,CCOc1ccc(/C=N/NC(=O)CC(=O)Nc2ccc(Cl)c(Cl)c2)cc1,inactive: 8.65%
26,Cc1ccc(NC(=O)c2ccc(OC(F)F)cc2)cc1S(=O)(=O)N(C)C,inactive: 2.58%
